Results taken from the supplement of paper PMC12632987.
The full ranking holds about 4,500 sequences; the median of “median log2 fold change of GCK-ALFA target abundance (FLAG IP / Myc IP barcode read proportion)” is about 0.078, and the lowest 2% start at about -0.6. The list shows a part of the results.

B1: GBRAP_128_3279 (protein)
chain: PDPAVVARARAFVAAIAAAGPEEARALAREFADWLGSISEAEAEQAVAEVEKELHRLSVEHLEILADVLEEKRPEYSPGKANLVADLQVAALNEAEEKEE
B2: GBRAP_26_5456 (protein)
chain: LEEVIDEQRDKILALFDEVLDPEKAAALKTEVLTEAEEIEEVVEAHPNDAEKIKAAIEEAEEDILEMMKELEVPEEAFKKLSEKVEEEAEKIKAAVDAKA
B3: GBRAP_52_5863 (protein)
chain: MEERIRAALERGLALVKAGRLEEARALAKELVASLTEEEVEVLTRVAAELALAAAPEDLDAVWELAELIAEALEEAGFPEELVTLFEDEVGAAIAKVEAA
B4: GBRAP_83_6923 (protein)
chain: KEHITVAANSDNIDEAFDAAIDLHKEEGYEVSIDVIVKKEDIPKLLESFEKLAKEGVETELRISLLGATKEEAEKLKKELEEIAKKYGVNIKVEVEAIEL
B5: GBRAP_166_4921 (protein)
chain: SMEEKVEEAKERLRAVIAEERADPRMTPAQITVALADELAEILDEEKDEETRMKIVRAGLEIAKEAGLDPERLARLTAGLYGFSDEEIEKIEKIVKEILA
B6: GBRAP_39_5700 (protein)
chain: EKEEELENRFSYYEAVGAKYMYENNISLEEAIKEAKKILDKISEEYPELKPLVDELKDILENGNEELKIAAIGIAKKYEEGMPLEEFKEDATALIEYSKS
B7: GBRAP_11_2674 (protein)
chain: QKEKLEEAARLAEELAAAVQALIAAGVTDAALRAKAGALLDELAALVEAHADEASKRDVAVARELWDALLADPANAAAYAEQLLAAARVLEGNFLLEIEE
B8: GBRAP_160_4493 (protein)
chain: SAALAEAQAAVDATLAELADALAEDDTAGAAGIAAAYAGDIVQEARELGVVTDEQADELLALAEAGGAAIVAAKAAGPAAMAAATAATRAALHAFLKKAA
B9: GBRAP_11_2618 (protein)
chain: KKEILKEKAKLAEEAAKAVEELLKKGVDDEELLKKIEKLLKELEELVKKHGSEADKKEVEIAKELFKKMKEDKENKEKYAEELLAALRVLAGNYLLEIEE
B10: GBRAP_80_6756 (protein)
chain: ARAALEAALAALEALDPELGARLREVLERALEAGVPVETVLRLVEALVELAKLDLEKARELAEEFIEELEEELEAGDLEGAIATLVDYASEALLAVEELE
B11: GBRAP_160_4793 (protein)
chain: SERVEKVAEIFREEGERALEMAEGETPEERVAVFDVELGAAIMEAIDLGLLNDEEEDIAIEVRDELVAAIRANPDLTPEELRALLEEQVERLRERLEKLE
B12: GBRAP_83_6929 (protein)
chain: KEKIVVAANDDTIDEAFEAAIDLTKEEGYEVTVEVIITPESFEKLLEAFEKMAKAGWEGKLEIYALGATEEEVEELKKKLEEIAKKYGVNIEIEVINEEL
B13: GBRAP_125_3053 (protein)
chain: DLEAAIAALAALARLLGLSPEEVAELAELARRYGVKGTLYALLMAEGAEDLADLVAELTEEEVIAVLERLAAWLAAHPDATADEALAQLRALAEEALARR
B14: GBRAP_160_4701 (protein)
chain: SATAKKLKEYVEETFKEAKKLIKGETREQRAIIVEGAIGEILMELAENPEATDELEDEVDKIGDELIAQIKADKNITDEELKALIDKAVEEMKKAIDKHL
B15: GBRAP_52_6229 (protein)
chain: MEEEARRKVEEMLALVKAGDLEGARALAREIAETWSDEELEVFIEELARLAEASPLEEEPYWEKLAEIVAEVLEELGRDEVLVDDLEARVAAALYKRRQA
B16: GBRAP_139_3759 (protein)
chain: SEEEKVEELAKKLVEAAKEGNEEELKKLAKEIASLSEENQKKAIKKVAELAKSLTFEQVEKIRDVLIETFLTERKNEDLATYAEGEFNGTLALVAYREEQ
B17: GBRAP_128_3173 (protein)
chain: SIEEVKEETKELMEKIKNSSPEEAKKIAKELFERLLTLSLEEAEAAVEVILEMLPELSAEKLKIIADEARKYRPKATPEKAELVAEVEVEALNLEEELEE
B18: GBRAP_128_3319 (protein)
chain: MDEALLKEAEKLAKAMQQADLETLAVLTRRLVALLGQADAEQREKIAEIFRKALEQLDAEKLDVVADTLRAERPELDPEAARVAAGLEVEALNLAEEKEE
B19: GBRAP_9_7170 (protein)
chain: EEEKKKKIKEVVLEAFEEILKVVPEDKKPLVEKLKKEAKEELEKALADPNTTLEEFKKLAKEQLEKLVKEIKEAVDPETAAAVEAIALTAEVEIDEILEE
B20: GBRAP_160_4414 (protein)
chain: SELIEEVRRLFEELRELVLELLEEGERAEALAAVRVGAGEILLYVDEDPRVSEEAEEKIAEVLDELVAEVEANPDASPEEVAKLIEEAEEKVIEILKENL
B21: GBRAP_128_3223 (protein)
chain: STEELKEKVRELLEKIKESNKEEAKKLAKELAELIKNSTVEEAEAMLEVIEELAPELSEEDLEILIDELEAAAKEVDDEVALELLDAAVVLSEELLEKEE
B22: GBRAP_160_4026 (protein)
chain: SKSVEEIVKDFREELELILEHAKEMSEEELAGAIRTAIGQAILDVSESPDLKDLTREEVDELDELAEEVAKEISEGDEETRKKKAEELAEAVRKAIEKAA
B23: GBRAP_160_4807 (protein)
chain: MEKVEKKLEEFRKDLLEEAEATKDLPVEDRARILEAVGYTEILYLKEELNLSDETEEKLDAVVDELVATLLANPDLTPEEVLALVEEANKKVEEIVKAEV
B24: GBRAP_52_6065 (protein)
chain: MEERIEEMAEAIAEAVAAGDRERALALIARMIEELSLEEIRRTLELAARRVAGLGEEAHELFVEVLEEGEDLLIEAGISEEDALDIVGAAEAALAKAVAA
B25: GBRAP_11_2679 (protein)
chain: KKEQLKKIAEIAKELAEAIEKLLKEGVDNEKLLKEIKKLLKELKELAEKYADEGLKTLAEIAAELFEEALANPENAEHYLELLLAAVRVLLANVEEEIDE
B26: GBRAP_160_4304 (protein)
chain: KEEYEKLMKEIKEIAEEAIKMIEGQSKEEQKTIVKVALGEIILEVDESPAISDELEEEIDKIAEEAEKYLDENPDLSEEEIKELLKEAVEKILELIKKHS
B27: GBRAP_39_5716 (protein)
chain: EEEEELELLASYAEALFAKYQYEKGISEEEAVAEGLAYMRRLAEEHPEYREEIEELIAEARRLGPEAERVLAAAAAMVRAGMPLEEAIAVAKYEFEKLKK
B28: GBRAP_83_6938 (protein)
chain: AEKVVVAAPGDRVEEAVEIALDLKENEGYEVSLEIIFTKEQAEKVIEEVKKLIEKGYEGEITLINTDNDKELAEKVKEEIKEAAKKYGKNVKVNAYVIEP
B29: GBRAP_83_6956 (protein)
chain: MITVVGTSKPESIESAFDAAIDLHLEEGIEVEIEVYVTKESAEVALEAAERAIKAGVEFELTLIGKESEREVLEELAKRIKEAAKAAGVDVKVEVVVEED

The binders below were run against GABARAP, O95166 (assay: median log2 fold change of GCK-ALFA target abundance (FLAG IP / Myc IP barcode read proportion) (log2 ratio); each designed protein is fused to an ALFA-tag nanobody in HEK293 cells to bring the named protein to FLAG-tagged glucokinase (GCK); Myc marks an untargeted standard; higher = target protein stabilised (more abundant)). Conditions: target protein: 3xFLAG-MCP-GCK-ALFA reporter; HEK293 landing pad (RPLP).
Outline: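 Sequencing of reverse-transcribed, amplified circular RNA barcodes from anti-FLAG and anti-Myc immunoprecipitates provided the readout for an ALFA-nanobody-fused binder library recombined into HEK293 landing-pad cells. Those cells were induced with 2 μg mL^−1 doxycycline, transfected with a plasmid expressing a FLAG-tagged target and a Myc-tagged standard, and lysed after 48 h. Target abundance is the per-binder median log2 ratio of FLAG to Myc barcode read proportions. Only barcodes at a proportion of ≥10^−7 in both replicates and binders with ≥3 barcodes per replicate were kept, with a 10^−6 pseudocount added before the two replicates were pooled.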

Sequence of GABARAP, O95166 (O95166 whole entry, the tested form may be a part): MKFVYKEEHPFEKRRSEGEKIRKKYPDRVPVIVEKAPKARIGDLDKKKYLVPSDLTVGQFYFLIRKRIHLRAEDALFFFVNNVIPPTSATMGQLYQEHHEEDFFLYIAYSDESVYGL

B1 and B2 are within 0.2 log units of each other in “median log2 fold change” value: 0.0749 for the first, 0.0449 for the second.

B3 and B4 are within 0.2 log units of each other in “median log2 fold change” value: 0.0457 for the first, 0.0512 for the second.

B5 and B6 are within 0.2 log units of each other in “median log2 fold change” value: 0.163 for the first, 0.353 for the second.

Going from B7 to B8, the “median log2 fold change” value falls from 0.218 to -0.322.

First: B9
Second: B10
The “median log2 fold change” value of the first is higher: 0.235 for the first, -0.0333 for the second.

B11 and B12 are within 0.2 log units of each other in “median log2 fold change” value: 0.0962 for the first, -0.01 for the second.

Going from B13 to B14, the “median log2 fold change” value rises from -0.187 to 0.0431.

First: B15
Second: B16
The “median log2 fold change” value of the first is lower: 0.0132 for the first, 0.364 for the second.

B17 and B18 are within 0.2 log units of each other in “median log2 fold change” value: 0.151 for the first, 0.112 for the second.

First: B19
Second: B20
The “median log2 fold change” value of the first is higher: 0.346 for the first, -0.165 for the second.

B21 and B22 are within 0.2 log units of each other in “median log2 fold change” value: 0.0373 for the first, 0.184 for the second.

Going from B23 to B24, the “median log2 fold change” value falls from 0.382 to -0.53.

B25 and B26 are within 0.2 log units of each other in “median log2 fold change” value: -0.169 for the first, 0.00504 for the second.

Going from B27 to B28, the “median log2 fold change” value falls from 0.0902 to -0.114.

In the case of B29, the “median log2 fold change” value is reported as 0.0672.
